Reference: patent US7271245B2, “Methods and compositions for inhibition of metastasis” (The Scripps Research Institute, priority 2004, dated 2007)

Assays:
[1] = molecular target: T1, tumor cell integrin αvβ3 (Homo sapiens, UniProt P05106+P06756); assay: Flow cytometry, scFv binding to BMS cells in fresh human plasma; conditions: saturable binding
T1 construct: Primary metastatic cells from blood samples of stage IV breast cancer patients (BCM1, BCM2, BMS) were isolated; endogenous in cells; host or cells: BMS cells (primary metastatic breast cancer cells from patient blood)
T1 sequence (P06756 31-889 limits assumed): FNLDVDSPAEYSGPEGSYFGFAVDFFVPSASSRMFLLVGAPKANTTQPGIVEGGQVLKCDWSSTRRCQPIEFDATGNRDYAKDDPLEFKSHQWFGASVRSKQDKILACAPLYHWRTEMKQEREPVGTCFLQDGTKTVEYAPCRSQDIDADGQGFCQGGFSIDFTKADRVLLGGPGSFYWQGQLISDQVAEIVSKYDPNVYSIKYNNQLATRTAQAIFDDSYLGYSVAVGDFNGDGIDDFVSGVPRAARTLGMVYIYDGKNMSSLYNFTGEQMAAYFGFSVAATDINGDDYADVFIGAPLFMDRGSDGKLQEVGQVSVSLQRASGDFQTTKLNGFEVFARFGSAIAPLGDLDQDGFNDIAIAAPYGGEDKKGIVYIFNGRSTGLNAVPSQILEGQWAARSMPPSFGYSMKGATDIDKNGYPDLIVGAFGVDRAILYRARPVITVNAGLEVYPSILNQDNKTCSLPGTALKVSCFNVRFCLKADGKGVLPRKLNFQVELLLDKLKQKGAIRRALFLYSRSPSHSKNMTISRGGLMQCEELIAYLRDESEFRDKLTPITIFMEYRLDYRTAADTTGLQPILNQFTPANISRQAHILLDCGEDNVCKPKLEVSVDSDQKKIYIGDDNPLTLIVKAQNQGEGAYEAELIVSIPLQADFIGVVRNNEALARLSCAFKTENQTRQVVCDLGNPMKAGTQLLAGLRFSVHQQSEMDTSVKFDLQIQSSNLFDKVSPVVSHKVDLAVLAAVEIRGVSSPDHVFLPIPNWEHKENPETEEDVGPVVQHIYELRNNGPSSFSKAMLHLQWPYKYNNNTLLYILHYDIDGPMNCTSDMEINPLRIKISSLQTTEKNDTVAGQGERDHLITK
T1 sequence (P06756 891-1048 partner limits assumed): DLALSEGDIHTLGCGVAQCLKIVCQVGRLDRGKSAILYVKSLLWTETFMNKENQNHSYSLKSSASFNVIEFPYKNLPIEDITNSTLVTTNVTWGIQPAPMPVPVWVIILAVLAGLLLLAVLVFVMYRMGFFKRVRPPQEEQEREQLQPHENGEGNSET
T1 sequence (P05106 27-788): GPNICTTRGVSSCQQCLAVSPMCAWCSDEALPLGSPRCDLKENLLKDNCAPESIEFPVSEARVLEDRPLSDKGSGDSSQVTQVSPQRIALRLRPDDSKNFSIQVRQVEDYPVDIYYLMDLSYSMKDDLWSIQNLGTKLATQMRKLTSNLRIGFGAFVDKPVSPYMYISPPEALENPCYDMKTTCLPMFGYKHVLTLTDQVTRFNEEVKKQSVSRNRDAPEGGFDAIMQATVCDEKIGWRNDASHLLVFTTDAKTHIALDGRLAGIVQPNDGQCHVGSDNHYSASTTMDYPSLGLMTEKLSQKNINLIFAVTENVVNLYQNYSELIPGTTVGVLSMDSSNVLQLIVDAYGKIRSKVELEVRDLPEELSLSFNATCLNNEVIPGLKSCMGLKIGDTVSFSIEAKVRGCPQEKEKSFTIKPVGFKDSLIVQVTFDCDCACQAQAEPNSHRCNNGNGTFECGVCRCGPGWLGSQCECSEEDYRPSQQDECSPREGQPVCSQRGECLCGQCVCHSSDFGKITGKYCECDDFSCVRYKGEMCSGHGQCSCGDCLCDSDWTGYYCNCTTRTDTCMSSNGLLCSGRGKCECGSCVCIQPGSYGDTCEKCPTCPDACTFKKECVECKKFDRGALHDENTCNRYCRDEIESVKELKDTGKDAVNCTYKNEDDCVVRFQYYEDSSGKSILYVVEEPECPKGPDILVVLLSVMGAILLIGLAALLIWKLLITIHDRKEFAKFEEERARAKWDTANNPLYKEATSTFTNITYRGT
Experimental: FIG. 4. Patient derived ligand mimetic scFvs Bc-12 and Bc-15 against activated αvβ3 are internalized and bind to breast cancer cells in human plasma and affect breast cancer survival. Flow cytometric analysis with human metastatic breast cancer cells (BMS) isolated from a patient blood sample. All binding and washing steps were done in fresh human plasma prepared from blood anticoagulated with 50 nM PPACK.
Flow cytometry. scFv binding to human tumor cells was analyzed by flow cytometry, initially with cloned scFv phage and then with purified scFv protein. Per sample, 2×10^5 tumor cells were blocked with goat serum and incubated either with scFv phage (2-5×10^10) (1 h at RT) followed by mouse anti-M13 mAb (Serotec) (30 min on ice) and goat FITC-anti mouse (Pierce) (30 min on ice), or with purified scFv (1.25 to 40 μg/ml, routinely 10 to 15 μg/ml) (45 min on ice), followed by mouse anti-FLAG mAb M2 (Sigma) (30 min on ice) and goat FITC-anti mouse. […] All samples were counter stained with propidium iodide (PI) and analyzed on a Becton-Dickinson FACScan, with live gate set to exclude PI positive cells.
Antimetastatic activity of scFv antibodies against activated αvβ3 inhibit hematogenous breast cancer metastasis in vivo. […] The antibodies bound the cells in a saturable manner with half maximal binding measured at 40 nM scFv (1 μg/ml) (FIG. 4).

[2] = system: BMS human breast cancer cells; assay: Experimental metastasis in vivo (lung colonization); set-up: species or system mouse
Experimental: FIGS. 5A, 5B, 5C. ScFvs Bc-12 and Bc-15 prevent hematogenous breast cancer metastasis. (A) Left: Lungs of female SCID mice 32 days after i.v. injection with 1×10^5 BMS human breast cancer cells. The mice were treated with 50 μg Bc-12 or Bc-15 in 100 μl PBS (i.v.) on days 1, 2, 3 and 4. Controls received PBS only. Right: Numbers of lung surface metastases for each animal, horizontal lines indicate the median number of metastases per group. […] (B) Left: Histological sections of the above mouse lungs, stained with hematoxylin/eosin. Metastases were counted in six sets of three consecutive sections separated by 140 μm for each lung. Right: Number of metastases counted in sections of individual lungs, horizontal lines indicate median number of metastases per animal group. […] (C) Effect of Bc-15 treatment on established breast cancer metastasis in the lungs. Female SCID mice were injected i.v. with 5×10^5 DsRed2-tagged MDA-MB 435 breast cancer cells expressing constitutively activated integrin αvβ3D723R. Mice were treated on day 7, 9, 11 and 14, 16, 18 by i.v. injections of scFv Bc-15 or its RGE mutant, Mut-15 (40 μg/dose). Metastatic foci were enumerated by fluorescence microscopy on day 19. Left: Images of typical tumor foci within the lung tissue in Mut-15 (top) or Bc-15 treated mice (bottom) (bar: 50 μm). Right: Number of metastatic foci within the lung tissue of each animal, horizontal line: median number of metastases per group.
Experimental metastasis in vivo. 1×10^5 BMS human metastatic breast cancer cells were injected into the lateral tail veins of 9 week old female C.B17/lcrTac-Prkdc scid mice (Taconic Farms) (n=8 to 10) together with a 50 μg bolus dose of scFv. I.v. Injections of 50 μg scFv bolus doses were repeated on days 2, 3 and 4 of the experiment. Control animals received vehicle only (PBS). For in vivo use, endotoxin was removed from scFv preparations on Detoxy-Gel resin (Pierce). Remaining traces ranged from 0.001 to 0.07 EU endotoxin/mg scFv (LAL test, Bio Whittaker). On day 32, mice were euthanized, dissected, the lungs excised, fixed in Bouin's solution, and metastatic foci counted at the lung surface under a dissecting microscope. The same lungs were embedded in paraffin, and 10 μm sections were cut and stained with hematoxylin/eosin. Per lung, 7 sets of three consecutive sections were collected, separated by 140 μm. The sections were randomized and coded, and the total number of metastatic foci counted.
To test directly whether targeting activated integrin αvβ3 with the ligand mimetic antibodies Bc-12 and-15 affects target organ colonization by circulating metastatic breast cancer cells, 1×10^5 BMS human breast cancer cells were injected intravenously into female C.B-17 SCID mice, together with 50 μg sterile, endotoxin free preparations of Bc-12 or Bc-15 (n=8-10 mice per group). At an average blood volume of 2 ml per mouse, this provides an initial scFv concentration of 1 μM. The clearance time for scFv antibody fragments in the circulation is less than 1 h. Kortt et al., Biomol. Eng, 18: 95-108, 2001. Tumor cells may remain in the circulation for several days. Therefore, scFv antibody injections (50 μg bolus doses, i.v.) were repeated on the second, third and fourth day. […] After 32 days, the mice were euthanized, dissected and analyzed by gross examination. […] The lungs were excised, fixed, and metastatic foci counted at the lung surface. Each of the control treated mice had tumor foci on their lungs (range: 8 to 68 foci per lung). In stark contrast, only two animals in the Bc-12 treated group, and 1 animal in the Bc-15 treated group had one visible nodule at their lung surface (FIG. 5A).
Per lung, six sets of three consecutive sections, separated by 140 μm, were collected. The sections were randomized and coded, and the total number of metastatic foci counted. All control animals had metastases in their lung tissues (range: 7 to 48 counts per lung), and those were of considerable size (FIG. 5B top image). […]

B1: Bc-15: patient derived human scFv antibody against activated αvβ3 with RGD motif in CDR-H3; cDNA ATCC PTA-6304 (protein)
scFv: MAQVQLVQSGAEVKEPGSSVKVSCKASGGTFSSYAIYWVRQAPGQGLEWMGWINPDSGDTNSAQQFQGRVTMTRDTSISTAYMELSRLRSDDTAMYYCARPPRGDGPDYWGQGTLVTVSSGGGGGS[letters of about 100 residues not shown]RGLGGLVDYKDDDDK
[1]
  half maximal binding: 1 µg/mL
[1]; read-out: half maximal binding
  EC50: 40 nM
[2]; 50 μg i.v. days 1-4, 32 days
  health status during the experiment: appeared healthy
[2]; 50 μg i.v. days 1-4, day 32, P<0.001 Kruskal Wallis
  number of lung surface metastases versus PBS control: significantly fewer metastases
[2]; P<0.005 Kruskal Wallis
  number of metastases in lung sections versus PBS control: significantly fewer detectable metastases
[2]; SCID mice, 50 μg i.v. days 1-4, day 32, n=8-10 per group, controls 8 to 68 foci per lung
  animals with one visible nodule at lung surface: 1 animals
[2]; day 32
  gross examination at dissection: No obvious abnormalities
[2]; histological sections, day 32, all controls positive
  mice with microscopically detectable metastases in lung tissue: 1 of 9
